The list shows a part of the results. The energies were worked out here from pooled read counts, against the library average; single values are noisy.
Biological target: T1, Pho4 (S. cerevisiae) (UniProt P07270)
T1 sequence: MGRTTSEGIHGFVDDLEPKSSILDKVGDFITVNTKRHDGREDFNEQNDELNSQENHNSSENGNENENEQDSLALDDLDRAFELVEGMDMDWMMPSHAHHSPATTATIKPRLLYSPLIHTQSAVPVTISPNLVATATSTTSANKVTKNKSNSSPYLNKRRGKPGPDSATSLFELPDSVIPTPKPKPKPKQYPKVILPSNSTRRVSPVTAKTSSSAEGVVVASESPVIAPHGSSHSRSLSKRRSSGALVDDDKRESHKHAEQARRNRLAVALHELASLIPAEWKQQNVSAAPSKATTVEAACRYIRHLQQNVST
Test: relative binding free energy (BET-seq); higher = weaker binding
Details: reference: library average

Sequence	relative binding free energy
ACGGACACGTGTGTGT	-0.01 kcal/mol
GTATACACGTGTATGT	-0.05 kcal/mol
GTACGCACGTGGTGGA	-0.25 kcal/mol
GATGTCACGTGGGCTA	0 kcal/mol
GGGTTCACGTGTGATT	0.45 kcal/mol
GCTTTCACGTGATAGG	0.45 kcal/mol
AAGAGCACGTGGGTGG	-0.23 kcal/mol
ATCGTCACGTGGTGAG	0.12 kcal/mol
TTAAACACGTGTGATT	-0.04 kcal/mol
ACGGTCACGTGACGGT	0.3 kcal/mol
GGATGCACGTGGGTTG	-0.15 kcal/mol
TCGGTCACGTGTCTGG	0.06 kcal/mol
TGTTCCACGTGTACGT	0.01 kcal/mol
AGATGCACGTGTTGGG	-0.03 kcal/mol
GCTGTCACGTGAGGTT	0.49 kcal/mol
CTAGTCACGTGATAGG	0.16 kcal/mol
CGGTACACGTGAGGGA	0.14 kcal/mol
GCGATCACGTGTGATT	0.42 kcal/mol
AGCGTCACGTGAGATG	0.17 kcal/mol
AGAGCCACGTGTAAGG	0.18 kcal/mol
CCTGGCACGTGAGTGG	0.18 kcal/mol

Sequence	relative binding free energy
TGTGGCACGTGTATAG	0.05 kcal/mol
AGGAACACGTGCGTTG	0 kcal/mol
ATTTTCACGTGGGAGA	0.26 kcal/mol
AATGGCACGTGATAAG	-0.09 kcal/mol
CTGCGCACGTGGTGGT	-0.25 kcal/mol
GAGTGCACGTGGCTGA	-0.01 kcal/mol
GTTGTCACGTGGCTAT	-0.04 kcal/mol
TGGTTCACGTGAGCTG	0.27 kcal/mol
TAAGTCACGTGATGGG	0.39 kcal/mol
TGCGTCACGTGAGGTG	0.2 kcal/mol
GGTGTCACGTGAGCGC	0.21 kcal/mol
TCCGGCACGTGATTGT	0.09 kcal/mol
CTGGGCACGTGGATGC	-0.21 kcal/mol
GTACTCACGTGGGTAA	0.23 kcal/mol
TACGTCACGTGAATTT	0.29 kcal/mol
CGAATCACGTGGTGGT	0.22 kcal/mol
ATATGCACGTGTTCAT	-0.08 kcal/mol
CTTTACACGTGGATTG	0.07 kcal/mol
TGCGTCACGTGGCAGT	0.14 kcal/mol
ATGAACACGTGTGGGG	0.11 kcal/mol
TGGAACACGTGGTGAA	0.03 kcal/mol

Sequence	relative binding free energy
TGGTACACGTGGGTTG	-0.03 kcal/mol
AATGTCACGTGGTCGT	-0.1 kcal/mol
GCTATCACGTGGGAGG	0.14 kcal/mol
CTATTCACGTGGGGTA	0.17 kcal/mol
TTCGTCACGTGGCGGT	0.11 kcal/mol
AGAAACACGTGGGGTC	0.09 kcal/mol
GGCTTCACGTGGTTAA	0.26 kcal/mol
GAAGGCACGTGGGATG	-0.15 kcal/mol
AGGGACACGTGTTATA	0.05 kcal/mol
ATCGTCACGTGGCGTG	-0.13 kcal/mol
TTAAGCACGTGTTACT	-0.08 kcal/mol
AATGTCACGTGATGTA	0.12 kcal/mol
ATATACACGTGATGGG	0.33 kcal/mol
GTTCGCACGTGAGGAT	0.32 kcal/mol
AGTTTCACGTGTTTGT	0.18 kcal/mol
TGCGTCACGTGGGGGA	0.01 kcal/mol
AGGCTCACGTGGGACT	0.29 kcal/mol
TGAGACACGTGGTTAG	0.14 kcal/mol
ACTTTCACGTGGATTT	0.19 kcal/mol
CGGTGCACGTGTATAG	-0.02 kcal/mol
TGGTACACGTGTATGG	0.05 kcal/mol

— the BET-seq Pho4 binding data (Le et al. 2018)
